# Results from the supplement of paper PMC10441789.
# This is one part of the list. Antibody binding of pooled human sera (four to six donors per pool; dilution not stated) to peptides of the Trypanosoma cruzi antigen TSSA on microarrays. Quantile-normalised fluorescence in arbitrary units, mean of duplicate arrays; higher = more binding. No active / inactive call. The uninfected pools are read here as the healthy donors of the same country. The strongest signals lie near the top of the scale (about 60,000).
# Test system: pooled sera of uninfected people, Colombia
# Assay: antibody binding signal (normalised fluorescence) (arbitrary fluorescence units); higher = stronger serum antibody binding to peptide
# Description: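 Microarray of 15-residue peptides over residues 30-55 of Trypanosoma cruzi TSSAII, each with 1 to 10 substitutions at naturally variable positions, probed with one serum pool per country.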
row,Sequence,antibody binding signal
1,SGKENKAAAGGTPSP,320
2,GTENKTATGGTPSPS,621
3,KENKPATGETPSPPG,156
4,PSGKDNKPATGEAPS,235
5,GKENKPATGGTPSPS,189
6,TENKPAAGGTPSQPG,522
7,KDNKAAAGGTPSPPG,202
8,GTDNKTATGEAPSQS,112
9,PSGKENKPATGETPS,801
10,KDNKAATGEAPSPPG,158
11,GTENKAATGETPSQP,133
12,GKENKPAAGETPSQS,239
13,TENKTAAGGTPSQPG,295
14,SGTDNKPAAGEAPSQ,209
15,GKENKAATGGAPSQP,119
16,DKKAATGETPSPSGA,835
17,DKKTAAGGAPSPSGA,223
18,SGTDKKPAAGGTPSP,476
19,TPPSGTENKTATGGA,517
20,GTDKKTATGGAPSQP,103

row,Sequence,antibody binding signal
1,TDKKAATGGAPSQPG,834
2,TEKKTATGEAPSPSG,137
3,KENKPATGGAPSQPG,120
4,PSGKDNKAATGEAPS,175
5,TPPSGTDNKAAAGGA,312
6,KEKKTAAGGAPSQSG,151
7,TEKKAATGEAPSPPG,587
8,TENKTAAGGTPSQSG,190
9,GTEKKAATGGTPSQP,1000
10,GKEKKAATGEAPSQS,185
11,TENKPATGGTPSQPG,317
12,GKDNKAATGGAPSQS,117
13,EKKAATGEAPSQPGA,664
14,KENKTAAGGAPSQSG,110
15,TPPSGTDNKPATGGA,449
16,GKEKKAATGEAPSQP,177
17,SGKDNKPAAGGAPSP,846
18,SGTENKPAAGGAPSP,293
19,PPSGKDNKAATGEAP,276
20,TSSTPPSGKDNKAAA,242
